From PubChem BioAssay AID493208 (National Center for Advancing Translational Sciences (NCATS), 2011)
In all, about 44,000 compounds went through this assay and about 340 (0.77%) were called active. About 5% were inconclusive and are not listed. Calls follow the shape of the dose curve; as a rule, active = well fitted inhibition curve with a large enough effect; inconclusive = small, poorly fitted or top-dose-only effect; inactive = flat fitted curve, though single readings scatter. This is one part of the list.

Test: Acumen qHTS Assay for Inhibitors of the mTORC1 Signaling Pathway in MEF (Tsc2-/-, p53-/-) Cells: Sytravon; also: nearly all actives have a fitted effect of over 50% in size;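 as to activity change, negative = inhibition: plate controls were DMSO for no effect and rapamycin for full effect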
Conditions: phospho-rpS6 immunofluorescence/PI, 24 h; series mostly up to 38.3 µM; activity change, negative = inhibition: at the top concentration
Method in brief: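 Readout is phospho-S6 Alexa 488 signal normalized to PI per well, reported as % active cells with thresholds set from rapamycin (7.5 nM) and DMSO controls. Cells: Tsc2-/-, p53-/- MEFs, 24 hrs compound at 37 C; PI cell number serves as viability.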
Potency is read from the fitted curve at half-maximal effect.

Row | Compound | activity change, negative = inhibition | Potency
1 | CCCSC1=NC2(CCN(C(=O)NC3CCCCC3)CC2)N=C1c1ccccc1 | inactive: 6.82% | 
2 | CC(C)c1nnc(NC(=O)c2nc(SCc3ccc(F)cc3)ncc2Cl)s1 | inactive: -3.15% | 
3 | CCCSc1ncc(Cl)c(C(=O)Nc2sc3c(c2C(=O)NCC)CCCC3)n1 | inactive: 1.58% | 
4 | Cc1cc2n(n1)CCCN2C(=O)Nc1ccc(Cl)cc1 | inactive: 1.78% | 
5 | COc1cccc(NC(=O)CN(Cc2ccccc2)S(=O)(=O)c2ccc3nc(C)sc3c2)c1 | inactive: -0.834% | 
6 | CSc1ncc(Cl)c(C(=O)Nc2nc3ccc(F)cc3s2)n1 | inactive: 3.65% | 
7 | CCN1CCN(C(=O)c2ccc3c(c2)N(Cc2ccccc2)C(=O)c2ccccc2S3=O)CC1 (stereo unspecified) | inactive: 1.8% | 
8 | CCOc1ccc(CNCc2c(C(=O)O)c(C)n(Cc3ccc(F)cc3Cl)c2C)cc1 | inactive: -4.17% | 
9 | Cc1nn(CCCC(=O)NCc2cccc(F)c2)c(=O)c2nn(-c3ccccc3)c(C)c12 | inactive: 5.09% | 
10 | COc1ccc(OC)c(-c2nc(C(N)=O)c3c(n2)n(-c2ccc4c(c2)OCO4)c(=O)n3C)c1 | inactive: -12.1% | 
11 | CCOC(=O)c1c(S(=O)(=O)NCC(=O)Nc2ccc(Cl)c(C(F)(F)F)c2)c(C)n(C)c1C | inactive: -4.34% | 
12 | Cc1ccc(NC(=O)CN(C)S(=O)(=O)c2ccc3c(c2)CCC(=O)N3)c(C)c1 | inactive: -10.2% | 
13 | COc1ccccc1-c1noc(-c2ccc(N(C)Cc3ccccc3)c([N+](=O)[O-])c2)n1 | inactive: 0.132% | 
14 | CCCN1CCN(c2ncc3c(n2)CCN(Cc2ccc(OC)c(OC)c2OC)C3)CC1 | inactive: 0% | 
15 | COc1ccccc1C(=O)c1c(N)c(-c2nc(-c3ccccc3)cs2)c2ccccn12 | inactive: -4.88% | 
16 | CCCCN(CC)C(=O)CCn1c(=O)c2cccn2c2cccnc21 | inactive: 2.37% | 
17 | CC(=O)c1cccc(N(C(=O)Cn2nnc3ccccc32)C(C(=O)NCc2ccccc2)c2ccc(F)cc2)c1 (stereo unspecified) | inactive: 8.43% | 
18 | CCCCNC(=O)CN1C(=O)CSc2ccc(S(=O)(=O)N3CCC(C)CC3)cc21 | inactive: -1.22% | 
19 | COc1ccc(CCNC(=O)Cn2c(=O)c3sccc3n(CC(=O)Nc3cccc(C(F)(F)F)c3)c2=O)cc1OC | inactive: 0.829% | 
20 | O=C(NCc1cccc(Cl)c1)c1cnc(N2CCCCC2)c2ccccc12 | inactive: -6.51% | 
21 | Cc1ccc(-n2ncc(C(=O)NCCc3ccsc3)c2C2CCN(C(=O)OC(C)(C)C)CC2)c(C)c1 | inactive: 3.64% | 
22 | Cc1cccc(N2CCN(c3ncnc4onc(C)c34)CC2)c1C | inactive: 5.84% | 
23 | CCc1ccc(C2N=C(N)Nc3nc4ccccc4n32)cc1 (stereo unspecified) | inactive: 0.632% | 
24 | COC(=O)c1cccc(Nc2c(-c3ccc(SC)cc3)nc3nc[nH]n23)c1 | inactive: 0.96% | 

Row | Compound | activity change, negative = inhibition | Potency
25 | O=C(CCCCCn1c(=O)[nH]c2ccccc2c1=O)NCCc1ccccc1 | inactive: -0.121% | 
26 | COc1ccc(Cl)cc1NC(=O)CN(c1cccc(C)c1C)S(C)(=O)=O | inactive: 5.85% | 
27 | Cc1cccc(S(=O)(=O)c2cn(Cc3ccc(F)cc3)c3cc(N4CCCCC4)c(F)cc3c2=O)c1 | inactive: -1.05% | 
28 | CCc1ccc(CNC(=O)CN2C(=O)CSc3ccc(S(=O)(=O)N4CCOCC4)cc32)cc1 | inactive: 7.13% | 
29 | COc1cccc(C(=O)N(Cc2ccc(N(C)C)cc2)Cc2ccco2)c1 | inactive: -7.78% | 
30 | CCc1ccc(S(=O)(=O)NCc2cccn2Cc2cccc(C)c2)cc1 | inactive: 10.8% | 
31 | CC1=C(C(=O)Nc2cc(Cl)ccc2C)C(c2ccccc2F)n2ncnc2N1 (stereo unspecified) | inactive: -2.4% | 
32 | CCc1ccccc1NC(=O)c1cc(-c2ccc(OC)cc2)on1 | inactive: -3.93% | 
33 | CN1CCN(C(CNC(=O)C(=O)Nc2ccccc2C#N)c2ccc3c(c2)OCO3)CC1 (stereo unspecified) | inactive: -4.42% | 
34 | COc1ccc(CCNC(=O)CSc2cc(=O)n(C)c3ccccc23)cc1OC | inactive: 2.97% | 
35 | COc1cc(C(=O)Nc2sc3c(c2C(N)=O)CCC(C)C3)cc(OC)c1OC (stereo unspecified) | inactive: -1.3% | 
36 | CCn1c(=O)c(=O)n(CC)c2cc(N3CCCCC3)c(NC(=O)c3ccc(OC)c(OC)c3)cc21 | inactive: 0.297% | 
37 | Cc1ccc2sc(N(CCCN(C)C)C(=O)c3ccco3)nc2c1C |  | active: 11.7 µM
38 | COc1ccc(NC(=O)Cn2nnnc2-c2ccccc2F)c(C)c1 | inactive: 2.3% | 
39 | CCCNC(=O)C1CCC(Cn2c(=O)c3sccc3n(CC(=O)N(CC)CC)c2=O)CC1 (stereo unspecified) | inactive: -2.39% | 
40 | COC(=O)c1ccc(NC(=O)CC2C(=O)N(c3cccc(F)c3)C(=O)N2CC(C)C)cc1 (stereo unspecified) | inactive: -13.1% | 
41 | CCCN(CCC)CCNC(=O)CS(=O)Cc1nc(-c2ccc(OC)c(OC)c2)oc1C (stereo unspecified) | inactive: -13.4% | 
42 | Cc1ccc(-n2nc(C(=O)N3CCCCC3)c(=O)n(C)c2=O)cc1 | inactive: 0.327% | 
43 | COc1ccc(CN2C(=O)N(c3cccc(C)c3)C(=O)C2CC(=O)Nc2ccc(F)cc2)cc1OC (stereo unspecified) | inactive: 1.19% | 
44 | COc1cccc(C(=O)Nc2nc3c(s2)CCCC3)c1 | inactive: -7.52% | 
45 | CN(Cc1ccccc1)C(=O)C(=O)Nc1ccc2nc3n(c(=O)c2c1)CCCCC3 | inactive: 2.45% | 
46 | CNc1ccc(-c2nc(-c3ccccn3)no2)cc1[N+](=O)[O-] | inactive: 0.929% | 
47 | Cc1ccc(CNC(=O)c2cc3cc(C)ccc3n2C)cc1 | inactive: -0.249% | 
48 | COc1ccc(-n2c(=O)c3ccc(C(=O)NCc4ccc(C)cc4)cc3n(CC(=O)Nc3cccc(F)c3)c2=O)cc1 | inactive: -10.8% | 

Row | Compound | activity change, negative = inhibition | Potency
49 | CCOc1ccc(C2c3[nH]c4ccccc4c3CCN2C(=O)CSc2ccccc2)cc1 (stereo unspecified) | inactive: -0.888% | 
50 | CCOC(=O)c1cc(NC(=O)c2ccc(C)cc2)c(=O)n2c1oc1ccccc12 | inactive: 0.0349% | 
51 | Cc1ccc(NC(=O)CN2C(=O)COc3ccc(S(=O)(=O)N4CCCCC4)cc32)cc1Cl | inactive: -9.2% | 
52 | COCCCNC(=O)Cn1c(=O)n(-c2ccccc2)c(=O)c2c1c1cc(OC)ccc1n2C | inactive: -3.01% | 
53 | COc1ccc(Nc2ncnc3scc(-c4ccc(F)cc4)c23)cc1 | inactive: 0% | 
54 | COc1ccc(Cn2c(SCc3ccc(C(=O)NC4CCCCC4)cc3)nc3cccnc32)cc1 | inactive: -2.19% | 
55 | CC(=O)Nc1ccc2nc(SCCOc3ccc(C)cc3)sc2c1 | inactive: 0.724% | 
56 | COc1ccc(NC(=O)c2sc3nc(C)c(C(=O)Nc4ccc(C)cc4C)c(-c4sccc4C)c3c2N)cc1 | inactive: -6.51% | 
57 | CCc1c(CN2CCN(c3ccc(F)cc3)CC2)csc1C | inactive: -6.68% | 
58 | Cc1ccc(CN2CCC(CNC(=O)Nc3ccccc3F)CC2)cc1 | inactive: 0.717% | 
59 | COc1ccc(C)cc1Nc1nc2c(S(=O)(=O)c3cc(C)ccc3C)nnn2c2ccsc12 | inactive: -1.07% | 
60 | COc1cc2c(cc1NC(=O)COc1cc(C)cc(C)c1)oc1ccccc12 | inactive: 6.59% | 
61 | COCCNc1nc2c(S(=O)(=O)c3ccccc3)nnn2c2ccc(Cl)cc12 | inactive: 0.348% | 
62 | O=C(COc1ccc(Cl)cc1)NCCc1csc(-c2ccc(C(F)(F)F)cc2)n1 | inactive: -10.9% | 
63 | Cc1oc2c(cc(NS(=O)(=O)c3ccc(Br)cc3)c3ccccc32)c1C(=O)OCc1ccccc1 | inactive: 5.09% | 
64 | CN(C)c1ccc(C(=O)Nc2sc(Nc3ccccc3)nc2C(N)=O)cc1 |  | active: 4.65 µM
65 | COc1ccc(Cn2c(CCC(=O)Nc3ccc(Br)c(C)c3)nc3cccnc32)cc1 | inactive: -9.59% | 
66 | CCCCCn1c(=O)[nH]c2cc(C(=O)N3CCN(c4ccc(OC)cc4)CC3)ccc2c1=O | inactive: 0% | 
67 | O=C(Cn1nnc(-c2ccc(C(F)(F)F)cc2)n1)NCCc1ccccc1 | inactive: 0.306% | 
68 | Cc1cc(C)cc(NS(=O)(=O)c2cc3[nH]c(=O)c(=O)[nH]c3cc2C)c1 | inactive: -0.238% | 
69 | CC(=O)Nc1ccc(S(=O)(=O)N2CCC(N3CCN(Cc4ccc(C)cc4)C(=O)C3=O)CC2)cc1 | inactive: 4.23% | 
70 | CC1Cc2cc(S(=O)(=O)CCC(=O)Nc3cccc(F)c3)ccc2N1C(=O)C1CC1 (stereo unspecified) | inactive: -3.12% | 
71 | COc1cc(OC)c(C(=O)NCc2nc(-c3ccccc3)no2)cc1OC | inactive: 3.35% | 
72 | O=C(Nc1cc(Cl)cc(Cl)c1)c1ccc(F)c(S(=O)(=O)N2CCCC2)c1 | inactive: -4.17% | 

Row | Compound | activity change, negative = inhibition | Potency
73 | CCCC(=O)Oc1c(Sc2ccc(C)cc2)c(C)nn1-c1ccccc1 | inactive: -10.7% | 
74 | CCc1ccc(CN(Cc2ccco2)c2cnc(S(C)(=O)=O)nc2C(=O)Nc2ccc(C)c(Cl)c2)cc1 | inactive: -5.27% | 
75 | CCOC(=O)C1CCC(CN(Cc2ccc(OC)cc2)S(=O)(=O)c2ccc(C)cc2)CC1 (stereo unspecified) | inactive: -8.2% | 
76 | Cc1ccc(NC(=O)CN(C)S(=O)(=O)c2cccc3cccnc23)c(C)c1 | inactive: -1.39% | 
77 | O=C(Cn1ncn2c(cc3cc(F)ccc32)c1=O)NC1CCCCC1 | inactive: 0.578% | 
78 | COC(=O)c1ccccc1NC(=O)c1cc2ccccn2n1 | inactive: -1.53% | 
79 | Cc1nn2c(=O)cc(COC(=O)c3ccc(NC(=O)CCc4ccccc4)cc3)nc2s1 | inactive: 27% | 
80 | CCc1noc(-c2ccc(N3CCC(C)CC3)c([N+](=O)[O-])c2)n1 | inactive: -4.45% | 
81 | Cc1cccc(OCCn2c(SCC(N)=O)nc3ccccc32)c1 | inactive: 12.9% | 
82 | COc1ccc(CCNC(=O)C(=O)NCC(c2ccco2)S(=O)(=O)c2cccs2)cc1 (stereo unspecified) | inactive: -5.86% | 
83 | CCC(Sc1nc2cc3c(cc2c(=O)n1CCCCCC(=O)NCc1ccc2c(c1)OCO2)OCO3)C(=O)NCCCOC (stereo unspecified) | inactive: -2.02% | 
84 | CC(C)C(=O)Nc1ccccc1C(=O)OCc1cc(=O)n2nc(C3CC3)sc2n1 | inactive: 0% | 
85 | Cc1c(Cl)cccc1NC(=O)c1cc(-c2cccc(Cl)c2)on1 | inactive: -23.3% | 
86 | O=C(Nc1cccc(Br)c1)Nc1nc2c(s1)CCCCCC2 | inactive: 3.18% | 
87 | O=C(CN1C(=O)c2cccnc2Oc2ccc(Cl)cc21)NCCCN1CCCCC1 | inactive: 1.47% | 
88 | Cc1cccc(-c2nc3cc(NC(=O)c4ccc(OCC(C)C)cc4)ccc3o2)c1 | inactive: 11.1% | 
89 | CCOC(=O)N1CCC(NC(=O)c2cnn(-c3ccc(C)cc3)c2-n2cccc2)CC1 | inactive: -2.32% | 
90 | Cc1ccn2c(c1)nc(=O)c1cc(S(=O)(=O)N3CCCCC3)ccc12 | inactive: -0.48% | 
91 | COc1ccc(NC(=O)c2cnc(N3CCOCC3)c3ccccc23)cc1OC | inactive: 1.28% | 
92 | COc1cccc(CCNC(=O)c2ccc(Cn3c(SCc4ccccc4)nc4cccnc43)cc2)c1 | inactive: -6.54% | 
93 | Cc1cccn2c(=O)c3cc(C(=O)NC(C)C)n(C)c3nc12 | inactive: 2.95% | 
94 | O=C(Nc1ccc2nc(SCCOc3ccccc3)sc2c1)c1ccco1 | inactive: -1.57% | 
95 | Cc1ccccc1NC(=O)C1CCN(C(=O)c2ccc(F)cc2)CC1 | inactive: 4.25% | 
96 | COc1ccc(-c2nc3ccccc3n2Cc2ccc(C(C)C)cc2)cc1 | inactive: -10.9% | 
